Assay results from publication PMC12136788.
The other results are listed elsewhere or left out.

T1: UNK ZnF1-3 (human, UniProt Q9C0B0 31-174)
T1 sequence: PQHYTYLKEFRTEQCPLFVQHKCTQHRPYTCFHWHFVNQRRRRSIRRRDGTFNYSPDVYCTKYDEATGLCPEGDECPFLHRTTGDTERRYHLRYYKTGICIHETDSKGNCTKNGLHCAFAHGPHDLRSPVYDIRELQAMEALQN

B1: chr12:69233606:69233607:+_ENSG00000135679_ENST00000462284|hu_hu|FALSE|FALSE (ssRNA)
RNA: GGGAGUUCUACAGUCCGACGAUCUCUAAAUUCCUAGGGUUAUAUAGUUAGAAAUAUAUAAUUCUCUUAUAGACAGGUCAACUAGGGGAAAUAAGUUAGCACAAUCAUUUGAAUUGGUUGUCUACAUACUGGGCAGGGCUUAUUCAACAGAGGAUUGAGCAUCA
B2: chr1:167535829:167535830:-_ENSMUSG00000026566_ENSMUST00000068705|mus_hu|motif|central (ssRNA)
RNA: GGGAGUUCUACAGUCCGACGAUCAGGAGGGUUUUUGACAUCACAGAUAUAGGUGCCAUUGUGUAUAAACUGCAUAUUUUCGGUGUUGAUUGAUGCAUCUUUCUUGUCAAGGUCUCCAGCCCAGCUGAUUCUGUCUUUAAAUGGCAACAGAGGAUUGAGCAUCA
B3: 32520443_32521279_2648_CDS_ENSMUSG00000014496_ENSMUST00000014640|mouse|control|control (ssRNA)
RNA: GGGAGUUCUACAGUCCGACGAUCAUCUGCACUAGCACUGCUAACCAGCAUCUCAACUGUAUUGGUUUGUCCGUUUUCUGCAGCCAUCAUGAGAGGUGUUUUUCCGGUAGAGUCUGCGGAAUUGACCUGAGCAUUCUGGCUGAGCAACAGAGGAUUGAGCAUCA
B4: chr13:110848956:110848957:-_ENSMUSG00000021700_ENSMUST00000167824|mus_mus|FALSE|FALSE (ssRNA)
RNA: GGGAGUUCUACAGUCCGACGAUCAGACAAACCAACACUAGAGUUCUUGGGAGUGUUUUCCGAAGCAGUUAGGGUUGUUCUAAAAACAAUGGAUGGGCAGGGGUACCCAGAUGACCACAGGGGAGGGCAAUGACACACUUAAAACAACAGAGGAUUGAGCAUCA
B5: chr20:17594467:17594468:-_ENSG00000125844_ENST00000246043|hu_mus|FALSE|FALSE (ssRNA)
RNA: GGGAGUUCUACAGUCCGACGAUCCCUCUGAGAACUCACCACCUGGCCUGUUGCUUCCCAACCUGGCCCCACUGAGAAAUACAGACAAUUGCACUGAUUGACAUAAACCCCGAGAGUCCUGGACUCCCAGCACACCCUGGUCUGCAACAGAGGAUUGAGCAUCA
B6: chr6:79679595:79679596:-_ENSG00000146247_ENST00000275034|hu_hu|motif|central (ssRNA)
RNA: GGGAGUUCUACAGUCCGACGAUCUAUAUUCCAUCGCCUGUAUUUUGCAUCAUCAAAUUGUUGUCUCAAGACUAGGAAAUCGGUAACGUCAGGCAUAUCAUGGUAUUUCAUGGUAAAUGAUCCGCCAGUCAGUUUACCAGUAUCCAACAGAGGAUUGAGCAUCA
B7: chr11:79252212:79252213:+_ENSMUSG00000020716_ENSMUST00000071325|mus_mus|motif|central (ssRNA)
RNA: GGGAGUUCUACAGUCCGACGAUCAGUAGCAGACAUUUCACAUCCUACUCCAUAAAGGUAGAGAGAAUGACAGGAGCUUCGGUCUGCCUGCUUAUUUUUAAGAAGAAAUUUAUUUCUGCAGAUCAGAAUUUCCCGUAACCACUUCAACAGAGGAUUGAGCAUCA
B8: chr1:130485734:130485735:-_ENSMUSG00000045382_ENSMUST00000052172|mus_mus|mus_mus_mus_hu_False|68_68 (ssRNA)
RNA: GGGAGUUCUACAGUCCGACGAUCGAUGAAGGAGUCGAUGCUGAUCCCAAUGUAGUAAGGCAGCCAACAGGCAAAGAAAGCCAGGAUGAGGAUGACUGUGGUCUUGAGGGCCUUGCGCUUCUGGUGGCCCUUGGAGUGUGACAGCAACAGAGGAUUGAGCAUCA
B9: chr1:87369078:87369079:-_ENSG00000183291_ENST00000370554|hu_mus|FALSE|FALSE (ssRNA)
RNA: GGGAGUUCUACAGUCCGACGAUCCAGAUUAAACUGUCCAAGAAGAUCGCAAGAGCUGCAGAGCAAGUUGCUGGAGAAACCCAACUCUCUGCAUGCCUCUGACGCAAACUCUGCCCCCAGAGCAGACGCCGCUUGAAACGCAGUCAACAGAGGAUUGAGCAUCA
B10: 155408674_155408794_5690_CDS_ENSG00000116539_ENST00000392403|human|control|control (ssRNA)
RNA: GGGAGUUCUACAGUCCGACGAUCUCGGUCCUUGCUGUGGCUACGGCCUGGACUGGAAGAAGGUGGUGCAGAGGCAGUUGCAAUCACAGCAUCAAUACUUUUCUCCAUGGGCUCUUGGUCCUCAUUUUGUACCAUCCGCUGCAGCAACAGAGGAUUGAGCAUCA
B11: chr7:125879632:125879633:+_ENSMUSG00000033904_ENSMUST00000106557|mus_hu|FALSE|FALSE (ssRNA)
RNA: GGGAGUUCUACAGUCCGACGAUCGCAAUAUUCUUAUCCGGAAAUCUGGAUUUAUUAUUAUAUAGCCCUUUAUUCUCUCCUAAAUCAAGCAUGCUAGAAAAAACAGACUAUGAAGAACAAAAUAUACAGACUAAAUAGAAAAUACAACAGAGGAUUGAGCAUCA
B12: chr19:16212804:16212805:+_ENSG00000167460_ENST00000300933|hu_mus|FALSE|FALSE (ssRNA)
RNA: GGGAGUUCUACAGUCCGACGAUCAACAAUUCUGGAGUGAAGGAAAGAUGUAACAUGGAACAGCAUUAAAGCUCAGUCAGAAGGCACAUGGGCAACAAUGAUCACCCCAGCAUUCUCGCUUGGAAUGCUUAAAGACAAUCUGUUCAACAGAGGAUUGAGCAUCA
B13: 84417517_84417637_166_CDS_ENSG00000065609_ENST00000520302|human|control|control (ssRNA)
RNA: GGGAGUUCUACAGUCCGACGAUCGUCCAGGUGCUUUUUCUUGGGGCCCAUUACUUCAUGAGUAGUGGCUUUGCAGACCGCUCUUGCUACAGCAGAGCCUGUAACGCUGUACUGAGCGGCGGCGAUCCGAUCCGUGAGCGUUUGCAACAGAGGAUUGAGCAUCA
B14: chr17:61655871:61655872:+_ENSG00000136485_ENST00000310827|hu_hu|motif|central (ssRNA)
RNA: GGGAGUUCUACAGUCCGACGAUCGGUGGGGUAUGGGUGGUCAAAGGUGUUUCUGCAAAUAAACUCUGAACUCUCCUCAUCGGAACCAACAAGCUGAACCUUGUUGUUGUACUCCUCCACGAAGCUGCCCAGCGCCAAGCGAAACAACAGAGGAUUGAGCAUCA
B15: chr3:55862657:55862658:-_ENSMUSG00000027799_ENSMUST00000029374|mus_hu|motif|central (ssRNA)
RNA: GGGAGUUCUACAGUCCGACGAUCUGAUGAUUCCAGGCAGAGCUGAGCAUCAGUGGCCUUAGCAUUAUAUGUAAAGGCAAUGCGGCUUGCAAGUUUCCCAUCAUAUAACACCUGUUUAUGAUGUUCUGCCAAAUGAAUAUCACUCAACAGAGGAUUGAGCAUCA
B16: 60582714_60582834_601_CDS_ENSMUSG00000026014_ENSMUST00000140485|mouse|control|control (ssRNA)
RNA: GGGAGUUCUACAGUCCGACGAUCGGAGUAGUUAGCAUGGGAAGGUUUAGUUGUUCUAUUAGAGGAAGAUGACGGUCCUCUCAGGGUGCCAUGUUUUGACGUAUGUCGGCCAGCAGGUAGCUUCUGAGGAACUUUUGGUUCUGUCAACAGAGGAUUGAGCAUCA
B17: 79826845_79826965_588_CDS_ENSMUSG00000043881_ENSMUST00000061222|mouse|control|control (ssRNA)
RNA: GGGAGUUCUACAGUCCGACGAUCGCGCUGCACGUUGGCCUCGCUGAGCGACACGCGACCAGUGUAGCAGUAGUCCACCAAGACCUCGAAGGACUCGGCAUCCACGUCGUGGAUCGUCACGCUGGCCUGCUGGCUCUCGUACAUCAACAGAGGAUUGAGCAUCA
B18: chr8:73998637:73998638:+_ENSMUSG00000074247_ENSMUST00000124745|mus_mus|FALSE|FALSE (ssRNA)
RNA: GGGAGUUCUACAGUCCGACGAUCGCUUGACACGAGUUACAGCAUAAAUAAAAACUCAAGGAAAAUAAAUACAUGGAUCCUAUGCGGUUGGAGGGCGCGGGCUGGAUGUAGGAGGCGGGCCGCGCUUACACACGCGGGUGGGAGCAACAGAGGAUUGAGCAUCA
B19: chr6:41757443:41757444:+_ENSG00000214736_ENST00000398881|hu_mus|hu_hu_hu_mus_False|68_78 (ssRNA)
RNA: GGGAGUUCUACAGUCCGACGAUCGAACCGUGCAGAGGCAACAUCUCAGCCGACACUGUGGACUCAAGGAACAAAAGGGGGGGGUUCAGGCAAGGAGAGGGAGUCAACUUCAGCUGCCACUCAGGUAGGAUCUUGUGGUCACAGCAACAGAGGAUUGAGCAUCA
B20: chr4:115894766:115894767:+_ENSMUSG00000028698_ENSMUST00000030464|mus_hu|mus_mus_mus_hu_True|1_58 (ssRNA)
RNA: GGGAGUUCUACAGUCCGACGAUCUUCCACACGGAAAUGUACUUCGGGUUUUCCAACGGCCAGUACCAGUCCGGCCAACUACUAGGAACAGGGUCCUCCCCCUCUCUCCUACAGAACACAACAAAAUGCCCCCGAACCCCGAACCAACAGAGGAUUGAGCAUCA
B21: chr6:38652254:38652255:-_ENSG00000124767_ENST00000373365|hu_hu|hu_hu_hu_mus_False|28_98 (ssRNA)
RNA: GGGAGUUCUACAGUCCGACGAUCCGAGAACUUCAUAAUGGGAAAAUCAAGCUUCUGCAGGAGGGUCAGUCCAAGAACCCUCGUAUAAAAAUCCAGGGACUUCUUAGGAUCCUUCACUCUUAGCAUCGUUUGCUGCAGUAGAAACAACAGAGGAUUGAGCAUCA
B22: chr16:94664741:94664742:+_ENSMUSG00000040785_ENSMUST00000117648|mus_hu|mus_mus_mus_hu_False|48_88 (ssRNA)
RNA: GGGAGUUCUACAGUCCGACGAUCUGGUACUGAUCUUGGUAGCUGAUACUCAGAAGAAAGGCUGGCCAAGGGUGUAUAUAUGCUGGUGAACUGCGACAAACCUGGUAACACGUUUAUGUAUGCUGGCGGUGUCUGGGUGAUAUCCAACAGAGGAUUGAGCAUCA

biological target: T1, UNK ZnF1-3; experiment: nsRBNS (natural sequence RNA bind-n-seq); RBNS binding buffer (assumed for nsRBNS): 25 mM Tris pH 7.5, 150 mM KCl, 3 mM MgCl2, 0.01% Triton X-100, 500 ug/ml BSA, 20 U/ml SUPERase-In, 4 C; UNK is unkempt and MSI1 is Musashi-1; names of the RNAs are library labels; protein concentration not given here; high values mean tight binding

**Q.** With B1 as the binder, how does the binding signal read?
**A.** 1.86 enrichment R

**Q.** How did the binding signal turn out when B2 was run?
**A.** 0.58 enrichment R

**Q.** For B3, which binding signal is on record?
**A.** 0.31 enrichment R

**Q.** B4 was tested. Which binding signal did it give?
**A.** 2.17 enrichment R

**Q.** Which binding signal does the source give for B5 here?
**A.** 1.16 enrichment R

**Q.** How did the binding signal turn out when B6 was run?
**A.** 0.982 enrichment R

**Q.** With B7 as the binder, how does the binding signal read?
**A.** 0.983 enrichment R

**Q.** How did the binding signal turn out when B8 was run?
**A.** 1.33 enrichment R

**Q.** For B9, which binding signal is on record?
**A.** 0.762 enrichment R

**Q.** B10 was tested. Which binding signal did it give?
**A.** 1.04 enrichment R

**Q.** How did the binding signal turn out when B11 was run?
**A.** 3.18 enrichment R

**Q.** Which binding signal does the source give for B12 here?
**A.** 1.2 enrichment R

**Q.** B13 was tested. Which binding signal did it give?
**A.** 0.552 enrichment R

**Q.** B14 was tested. Which binding signal did it give?
**A.** 1.03 enrichment R

**Q.** How did the binding signal turn out when B15 was run?
**A.** 0.9 enrichment R

**Q.** Which binding signal does the source give for B16 here?
**A.** 0.94 enrichment R

**Q.** Which binding signal does the source give for B17 here?
**A.** 0.537 enrichment R

**Q.** How did the binding signal turn out when B18 was run?
**A.** 2.04 enrichment R

**Q.** For B19, which binding signal is on record?
**A.** 2.06 enrichment R

**Q.** With B20 as the binder, how does the binding signal read?
**A.** 1.06 enrichment R

**Q.** Which binding signal does the source give for B21 here?
**A.** 0.715 enrichment R

**Q.** B22 was tested. Which binding signal did it give?
**A.** 1.15 enrichment R
